From US20230086069A1 (SYSTIMMUNE, published 2023) come the findings set out here.

The Kd is the concentration at which binding is half-saturated. Read a high Kd as lower affinity.

For assay [1], the target named is T1, human CD19 on cells (CD20+ B cells of human PBMC; Raji lymphoma cells) (human, UniProt P15391 20-556).
T1 sequence (looked up): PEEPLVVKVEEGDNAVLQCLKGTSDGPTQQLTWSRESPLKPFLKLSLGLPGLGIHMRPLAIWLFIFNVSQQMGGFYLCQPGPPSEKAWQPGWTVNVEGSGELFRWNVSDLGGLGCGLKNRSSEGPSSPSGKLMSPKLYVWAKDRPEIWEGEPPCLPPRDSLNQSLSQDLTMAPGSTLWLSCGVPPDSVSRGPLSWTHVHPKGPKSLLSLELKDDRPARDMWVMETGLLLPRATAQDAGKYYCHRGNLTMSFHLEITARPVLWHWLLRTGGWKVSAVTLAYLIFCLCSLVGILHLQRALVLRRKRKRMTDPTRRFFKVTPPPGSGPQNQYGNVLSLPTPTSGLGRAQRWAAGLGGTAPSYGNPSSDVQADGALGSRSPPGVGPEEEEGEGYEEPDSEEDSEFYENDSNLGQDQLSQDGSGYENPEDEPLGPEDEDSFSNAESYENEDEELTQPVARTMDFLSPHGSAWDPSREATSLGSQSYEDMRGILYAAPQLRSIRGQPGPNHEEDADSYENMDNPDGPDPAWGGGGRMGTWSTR
Description: cell-based or functional assay.

Another assay addresses T2, His-tagged human CD19 (human, UniProt P15391 20-291, limits assumed).
T2 construct: not shown: His tag
T2 sequence (looked up): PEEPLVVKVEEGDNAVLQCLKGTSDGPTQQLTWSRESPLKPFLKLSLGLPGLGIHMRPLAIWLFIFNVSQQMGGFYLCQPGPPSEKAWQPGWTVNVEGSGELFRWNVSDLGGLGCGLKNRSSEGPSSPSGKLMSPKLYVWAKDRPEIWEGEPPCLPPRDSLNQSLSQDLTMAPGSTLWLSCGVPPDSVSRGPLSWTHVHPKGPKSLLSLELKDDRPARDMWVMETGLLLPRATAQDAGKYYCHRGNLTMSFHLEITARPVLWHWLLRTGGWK
Briefly: BLI (Octet), GNC antibody on AHC sensor, His-tagged human CD19 as analyte, 1:1 fit. As to the method:
To determine the binding affinity of the hexa and pentaGNC antibodies to human CD19, the Octet binding assay was used. The GNC antibodies were loaded via AHC sensors at 10 ug/ml and bound to a serial dilution (1:2.5 dilutions starting from the highest concentration of 200 nM) or a single 100-nM concentration of His-tagged human CD19.

B1: SI-77H6 (hexaGNC antibody, humanized CD19 binding domain H7 at D2, Fab) (other)
heavy: EIVLTQSPSTLSVSPGERATFSCRASQSIGTNIHWYQQKPGKPPRLLIKYASESISGIPDRFSGSGSGTEFTLTISSVQSEDFAVYYCQQNNNWPTTFGPGTKLTVLGGGGSGGGGSGGGGSGGGGSQVQLQQSGPGLVKPSETLSITCTVSGFSLTNYGVHWIRQAPGKGLEWLGVIWSGGNTDYNTPFTSRFTITKDNSKNQVYFKLRSVRADDTAIYYCARALTYYDYEFAYWGQGTLVTVSSGGGGSGGGGSQVTLKESGPGLVQPGQTLRLTCAFSGFSLSTSGMGVGWIRQPPGKCLEWLAHIWWDDDKRYNPALKSRLTISKDTSKNQVYLQMNSLDAEDTAVYYCARMELWSYYFDYWGQGTLVTVSSASTKGPSVFPLAPSSKSTSGGTAALGCLVKDYFPEPVTVSWNSGALTSGVHTFPAVLQSSGLYSLSSVVTVPSSSLGTQTYICNVNHKPSNTKVDKRV[omitted - human IgG1 Fc with changes]GGGGSGGGGSEVQLLESGGGLVQPGGSLRLSCAASGFSFSSGYDMCWVRQAPGKGLEWIACIAAGSAGITYDANWAKGRFTISRDNSKNTLYLQMNSLRAEDTAVYYCARSAFSFDYAMDLWGQGTLVTVSSGGGGSGGGGSGGGGSGGGGSDIQMTQSPSTLSASVGDRVTITCQASQSISSHLNWYQQKPGKAPKLLIYKASTLASGVPSRFSGSGSGTEFTLTISSLQPDDFATYYCQQGYSWGNVDNVFGGGTKVEIKGGGGSGGGGSGRSLVESGGGLVQPGGSLRLSCTASGFTISSYHMQWVRQAPGKGLEYIGTISSGGNVYYASSARGRFTISRPSSKNTVDLQMNSLRAEDTAVYYCARDSGYSDPMWGQGTLVTVSSGGGGSGGGGSGGGGSGGGGSDVVMTQSPSSVSASVGDRVTITCQASQNIRTYLSWYQQKPGKAPKLLIYAAANLASGVPSRFSGSGSGTDFTLTISDLEPGDAATYYCQSTYLGTDYVGGAFGGGTKVEIK
light: EIVMTQSPSTLSASVGDRVIITCQASESISSWLAWYQQKPGKAPKLLIYEASKLASGVPSRFSGSGSGAEFTLTISSLQPDDFATYYCQGYFYFISRTYVNSFGQGTKLTVLGGGGSGGGGSGGGGSGGGGSEVQLVESGGGLVQPGGSLSLSCAASGFTISTNAMSWVRQAPGKGLEWVGVITGRDITYYASWAKGRFTISRDTSKNTVYLQMNSLRAEDTAVYYCARDGGSSAITSNNIWGQGTLVTVSSGGGGSGGGGSENVLTQSPASLSASPGERVTITCSASSSVSYMHWYQQKPGQAPKLWIYDTSKLASGVPSRFSGSGSGNDHTLTISSMEPEDFATYYCFQGSVYPFTFGCGTKVEIKRTVAAPSVFIFPPSDEQLKSGTASVVCLLNNFYPREAKVQWKVDNALQSGNSQESVTEQDSKDSTYSLSSTLTLSKADYEKHKVYACEVTHQGLSSPVTKSFNRGECGGGGSGGGGSGGGGSQSALTQPASVSGSPGQSITISCTGTSSDVGGYNFVSWYQQHPGKAPKLMIYDVSDRPSGVSDRFSGSKSGNTASLIISGLQADDEADYYCSSYGSSSTHVIFGGGTKVTVLGGGGSGGGGSGGGGSGGGGSQVQLQESGGGLVKPGGSLSLSCAASGFTFSSYWMSWVRQAPGKGLEWVANINRDGSASYYVDSVKGRFTISRDDAKNSLYLQMNSLRAEDTAVYYCARDRGVGYFDLWGRGTLVTVSS
On to B1, for which the “EC50 (pM), re-directed T cell cytotoxicity: cytolysis of Raji cells by human CD8 T cells” value in assay [1] came out at 30.2 pM.

B2: SI-77H3 (hexaGNC antibody, humanized CD19 binding domain H4 at D1) (other)
heavy: ENVLTQSPASLSASPGERVTITCSASSSVSYMHWYQQKPGQAPKLWIYDTSKLASGVPSRFSGSGSGNDHTLTISSMEPEDFATYYCFQGSVYPFTFGQGTKVTVLGGGGSGGGGSGGGGSGGGGSQVTLKESGPGLVQPGQTLSLTCAFSGFSLSTSGMGVGWIRQPPGKGLEWLAHIWWDDDKRYNPALKSRLTISKDTSKNQVYLQMNSLDAEDTAVYYCARMELWSYYFDYWGQGTLVTVSSGGGGSGGGGSQVQLQQSGPGLVKPSETLSITCTVSGFSLTNYGVHWIRQAPGKCLEWLGVIWSGGNTDYNTPFTSRFTITKDNSKNQVYFKLRSVRADDTAIYYCARALTYYDYEFAYWGQGTLVTVSSASTKGPSVFPLAPSSKSTSGGTAALGCLVKDYFPEPVTVSWNSGALTSGVHTFPAVLQSSGLYSLSSVVTVPSSSLGTQTYICNVNHKPSNTKVDKRV[omitted - human IgG1 Fc with changes]GGGGSGGGGSEVQLLESGGGLVQPGGSLRLSCAASGFSFSSGYDMCWVRQAPGKGLEWIACIAAGSAGITYDANWAKGRFTISRDNSKNTLYLQMNSLRAEDTAVYYCARSAFSFDYAMDLWGQGTLVTVSSGGGGSGGGGSGGGGSGGGGSDIQMTQSPSTLSASVGDRVTITCQASQSISSHLNWYQQKPGKAPKLLIYKASTLASGVPSRFSGSGSGTEFTLTISSLQPDDFATYYCQQGYSWGNVDNVFGGGTKVEIKGGGGSGGGGSGRSLVESGGGLVQPGGSLRLSCTASGFTISSYHMQWVRQAPGKGLEYIGTISSGGNVYYASSARGRFTISRPSSKNTVDLQMNSLRAEDTAVYYCARDSGYSDPMWGQGTLVTVSSGGGGSGGGGSGGGGSGGGGSDVVMTQSPSSVSASVGDRVTITCQASQNIRTYLSWYQQKPGKAPKLLIYAAANLASGVPSRFSGSGSGTDFTLTISDLEPGDAATYYCQSTYLGTDYVGGAFGGGTKVEIK
light: EIVMTQSPSTLSASVGDRVIITCQASESISSWLAWYQQKPGKAPKLLIYEASKLASGVPSRFSGSGSGAEFTLTISSLQPDDFATYYCQGYFYFISRTYVNSFGQGTKLTVLGGGGSGGGGSGGGGSGGGGSEVQLVESGGGLVQPGGSLSLSCAASGFTISTNAMSWVRQAPGKGLEWVGVITGRDITYYASWAKGRFTISRDTSKNTVYLQMNSLRAEDTAVYYCARDGGSSAITSNNIWGQGTLVTVSSGGGGSGGGGSEIVLTQSPSTLSVSPGERATFSCRASQSIGTNIHWYQQKPGKPPRLLIKYASESISGIPDRFSGSGSGTEFTLTISSVQSEDFAVYYCQQNNNWPTTFGCGTKLTVLRTVAAPSVFIFPPSDEQLKSGTASVVCLLNNFYPREAKVQWKVDNALQSGNSQESVTEQDSKDSTYSLSSTLTLSKADYEKHKVYACEVTHQGLSSPVTKSFNRGECGGGGSGGGGSGGGGSQSALTQPASVSGSPGQSITISCTGTSSDVGGYNFVSWYQQHPGKAPKLMIYDVSDRPSGVSDRFSGSKSGNTASLIISGLQADDEADYYCSSYGSSSTHVIFGGGTKVTVLGGGGSGGGGSGGGGSGGGGSQVQLQESGGGLVKPGGSLSLSCAASGFTFSSYWMSWVRQAPGKGLEWVANINRDGSASYYVDSVKGRFTISRDDAKNSLYLQMNSLRAEDTAVYYCARDRGVGYFDLWGRGTLVTVSS
As to B2, in assay [1], the “EC50 (pM), re-directed T cell cytotoxicity: cytolysis of Raji cells by human CD8 T cells” value turned out to be 8.1 pM.

B3: SI-38P12 (pentaGNC antibody, humanized CD19 binding domain H4 at D6) (other)
heavy: QIVLSQSPAILSASPGEKVTMTCRASSSVSYIHWFQQKPGSSPKPWIYATSNLASGVPVRFSGSGSGTSYSLTISRVEAEDAATYYCQQWTSNPPTFGGGTKLTVLGGGGSGGGGSGGGGSGGGGSQVQLQQPGAELVKPGASVKMSCKASGYTFTSYNMHWVKQTPGRGLEWIGAIYPGNGDTSYNQKFKGKATLTADKSSSTAYMQLSSLTSEDSAVYYCARSTYYGGDWYFNVWGAGTTVTVSSGGGGSGGGGSEVQLVESGGGLVQPGGSLRLSCAASGFTISTNAMSWVRQAPGKGLEWIGVITGRDITYYASWAKGRFTISRDNSKNTLYLQMNSLRAEDTAVYYCARDGGSSAITSNNIWGQGTLVTVSSASTKGPSVFPLAPSSKSTSGGTAALGCLVKDYFPEPVTVSWNSGALTSGVHTFPAVLQSSGLYSLSSVVTVPSSSLGTQTYICNVNHKPSNTKVDKRV[omitted - human IgG1 Fc with changes]GGGGSGGGGSEVQLLESGGGLVQPGGSLRLSCAASGFSFSSGYDMCWVRQAPGKGLEWIACIAAGSAGITYDANWAKGRFTISRDNSKNTLYLQMNSLRAEDTAVYYCARSAFSFDYAMDLWGQGTLVTVSSGGGGSGGGGSGGGGSGGGGSDIQMTQSPSTLSASVGDRVTITCQASQSISSHLNWYQQKPGKAPKLLIYKASTLASGVPSRFSGSGSGTEFTLTISSLQPDDFATYYCQQGYSWGNVDNVFGGGTKVEIKGGGGSGGGGSGRSLVESGGGLVQPGGSLRLSCTASGFTISSYHMQWVRQAPGKGLEYIGTISSGGNVYYASSARGRFTISRPSSKNTVDLQMNSLRAEDTAVYYCARDSGYSDPMWGQGTLVTVSSGGGGSGGGGSGGGGSGGGGSDVVMTQSPSSVSASVGDRVTITCQASQNIRTYLSWYQQKPGKAPKLLIYAAANLASGVPSRFSGSGSGTDFTLTISDLEPGDAATYYCQSTYLGTDYVGGAFGGGTKVEIK
light: ENVLTQSPASLSASPGERVTITCSASSSVSYMHWYQQKPGQAPKLWIYDTSKLASGVPSRFSGSGSGNDHTLTISSMEPEDFATYYCFQGSVYPFTFGQGTKVTVLGGGGSGGGGSGGGGSGGGGSQVTLKESGPGLVQPGQTLRLTCAFSGFSLSTSGMGVGWIRQPPGKGLEWLAHIWWDDDKRYNPALKSRLTISKDTSKNQVYLQMNSLDAEDTAVYYCARMELWSYYFDYWGQGTLVTVSSGGGGSGGGGSDVVMTQSPSTLSASVGDRVTINCQASESISSWLAWYQQKPGKAPKLLIYEASKLASGVPSRFSGSGSGTEFTLTISSLQPDDFATYYCQGYFYFISRTYVNSFGGGTKVEIKRTVAAPSVFIFPPSDEQLKSGTASVVCLLNNFYPREAKVQWKVDNALQSGNSQESVTEQDSKDSTYSLSSTLTLSKADYEKHKVYACEVTHQGLSSPVTKSFNRGEC
The molecule B3 registered a Kd in the assay with His-tagged human CD19 of 1.11 nM. This lies in the single-digit nanomolar range.
